In PMC8760265 one finds binding data, which are given here for seven substances.

The chains behind the UniProt entries cited, without tags or fusion partners. Where a name states a change or a piece, a line headed by the entry shows the natural chain unless it says otherwise. Residues count along the entry.
UniProt Q99814: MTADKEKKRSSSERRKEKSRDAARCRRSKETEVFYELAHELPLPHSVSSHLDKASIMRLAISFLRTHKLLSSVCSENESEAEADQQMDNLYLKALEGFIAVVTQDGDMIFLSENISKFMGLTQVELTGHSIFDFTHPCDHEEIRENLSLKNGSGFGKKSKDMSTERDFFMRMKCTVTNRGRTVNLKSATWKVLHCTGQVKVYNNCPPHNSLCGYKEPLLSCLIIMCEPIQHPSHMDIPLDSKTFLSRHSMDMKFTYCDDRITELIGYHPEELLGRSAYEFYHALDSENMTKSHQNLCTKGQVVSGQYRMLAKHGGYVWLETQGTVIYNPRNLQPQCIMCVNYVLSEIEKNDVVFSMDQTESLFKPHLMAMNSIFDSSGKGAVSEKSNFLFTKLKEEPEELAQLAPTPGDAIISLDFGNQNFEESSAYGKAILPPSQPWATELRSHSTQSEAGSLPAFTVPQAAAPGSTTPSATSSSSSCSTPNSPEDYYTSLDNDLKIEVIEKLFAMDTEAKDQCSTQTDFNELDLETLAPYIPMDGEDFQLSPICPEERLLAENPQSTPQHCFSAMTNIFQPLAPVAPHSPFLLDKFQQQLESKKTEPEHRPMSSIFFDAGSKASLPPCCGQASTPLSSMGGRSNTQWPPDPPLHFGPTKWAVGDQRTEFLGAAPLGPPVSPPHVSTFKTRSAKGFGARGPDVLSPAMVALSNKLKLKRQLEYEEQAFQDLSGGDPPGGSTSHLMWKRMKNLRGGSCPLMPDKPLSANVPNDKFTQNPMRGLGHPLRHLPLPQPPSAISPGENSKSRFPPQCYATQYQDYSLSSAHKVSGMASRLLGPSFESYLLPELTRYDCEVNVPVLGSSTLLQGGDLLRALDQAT
UniProt Q16665: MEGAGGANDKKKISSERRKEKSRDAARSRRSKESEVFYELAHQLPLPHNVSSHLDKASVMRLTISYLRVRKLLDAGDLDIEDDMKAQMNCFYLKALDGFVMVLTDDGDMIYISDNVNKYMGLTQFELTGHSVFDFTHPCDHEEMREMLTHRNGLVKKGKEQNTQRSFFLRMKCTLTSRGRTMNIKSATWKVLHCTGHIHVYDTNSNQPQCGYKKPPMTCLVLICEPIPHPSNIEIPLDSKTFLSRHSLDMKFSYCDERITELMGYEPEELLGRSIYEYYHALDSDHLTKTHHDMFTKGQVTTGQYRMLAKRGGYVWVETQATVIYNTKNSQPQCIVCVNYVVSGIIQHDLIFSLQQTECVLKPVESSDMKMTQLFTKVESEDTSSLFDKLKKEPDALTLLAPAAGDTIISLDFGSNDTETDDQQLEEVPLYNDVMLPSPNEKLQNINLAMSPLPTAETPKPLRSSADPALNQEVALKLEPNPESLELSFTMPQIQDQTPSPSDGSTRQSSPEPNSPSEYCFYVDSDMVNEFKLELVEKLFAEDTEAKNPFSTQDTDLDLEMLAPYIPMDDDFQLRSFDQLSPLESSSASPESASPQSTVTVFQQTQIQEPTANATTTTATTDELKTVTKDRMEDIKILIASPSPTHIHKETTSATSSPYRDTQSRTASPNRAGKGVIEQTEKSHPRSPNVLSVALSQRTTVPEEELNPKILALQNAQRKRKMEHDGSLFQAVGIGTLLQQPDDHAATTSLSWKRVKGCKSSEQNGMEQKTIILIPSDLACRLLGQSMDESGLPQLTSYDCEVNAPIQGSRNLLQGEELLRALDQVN
FLAG-HIF-1α (531–826): residues 531-826 of Q16665
UniProt P78527: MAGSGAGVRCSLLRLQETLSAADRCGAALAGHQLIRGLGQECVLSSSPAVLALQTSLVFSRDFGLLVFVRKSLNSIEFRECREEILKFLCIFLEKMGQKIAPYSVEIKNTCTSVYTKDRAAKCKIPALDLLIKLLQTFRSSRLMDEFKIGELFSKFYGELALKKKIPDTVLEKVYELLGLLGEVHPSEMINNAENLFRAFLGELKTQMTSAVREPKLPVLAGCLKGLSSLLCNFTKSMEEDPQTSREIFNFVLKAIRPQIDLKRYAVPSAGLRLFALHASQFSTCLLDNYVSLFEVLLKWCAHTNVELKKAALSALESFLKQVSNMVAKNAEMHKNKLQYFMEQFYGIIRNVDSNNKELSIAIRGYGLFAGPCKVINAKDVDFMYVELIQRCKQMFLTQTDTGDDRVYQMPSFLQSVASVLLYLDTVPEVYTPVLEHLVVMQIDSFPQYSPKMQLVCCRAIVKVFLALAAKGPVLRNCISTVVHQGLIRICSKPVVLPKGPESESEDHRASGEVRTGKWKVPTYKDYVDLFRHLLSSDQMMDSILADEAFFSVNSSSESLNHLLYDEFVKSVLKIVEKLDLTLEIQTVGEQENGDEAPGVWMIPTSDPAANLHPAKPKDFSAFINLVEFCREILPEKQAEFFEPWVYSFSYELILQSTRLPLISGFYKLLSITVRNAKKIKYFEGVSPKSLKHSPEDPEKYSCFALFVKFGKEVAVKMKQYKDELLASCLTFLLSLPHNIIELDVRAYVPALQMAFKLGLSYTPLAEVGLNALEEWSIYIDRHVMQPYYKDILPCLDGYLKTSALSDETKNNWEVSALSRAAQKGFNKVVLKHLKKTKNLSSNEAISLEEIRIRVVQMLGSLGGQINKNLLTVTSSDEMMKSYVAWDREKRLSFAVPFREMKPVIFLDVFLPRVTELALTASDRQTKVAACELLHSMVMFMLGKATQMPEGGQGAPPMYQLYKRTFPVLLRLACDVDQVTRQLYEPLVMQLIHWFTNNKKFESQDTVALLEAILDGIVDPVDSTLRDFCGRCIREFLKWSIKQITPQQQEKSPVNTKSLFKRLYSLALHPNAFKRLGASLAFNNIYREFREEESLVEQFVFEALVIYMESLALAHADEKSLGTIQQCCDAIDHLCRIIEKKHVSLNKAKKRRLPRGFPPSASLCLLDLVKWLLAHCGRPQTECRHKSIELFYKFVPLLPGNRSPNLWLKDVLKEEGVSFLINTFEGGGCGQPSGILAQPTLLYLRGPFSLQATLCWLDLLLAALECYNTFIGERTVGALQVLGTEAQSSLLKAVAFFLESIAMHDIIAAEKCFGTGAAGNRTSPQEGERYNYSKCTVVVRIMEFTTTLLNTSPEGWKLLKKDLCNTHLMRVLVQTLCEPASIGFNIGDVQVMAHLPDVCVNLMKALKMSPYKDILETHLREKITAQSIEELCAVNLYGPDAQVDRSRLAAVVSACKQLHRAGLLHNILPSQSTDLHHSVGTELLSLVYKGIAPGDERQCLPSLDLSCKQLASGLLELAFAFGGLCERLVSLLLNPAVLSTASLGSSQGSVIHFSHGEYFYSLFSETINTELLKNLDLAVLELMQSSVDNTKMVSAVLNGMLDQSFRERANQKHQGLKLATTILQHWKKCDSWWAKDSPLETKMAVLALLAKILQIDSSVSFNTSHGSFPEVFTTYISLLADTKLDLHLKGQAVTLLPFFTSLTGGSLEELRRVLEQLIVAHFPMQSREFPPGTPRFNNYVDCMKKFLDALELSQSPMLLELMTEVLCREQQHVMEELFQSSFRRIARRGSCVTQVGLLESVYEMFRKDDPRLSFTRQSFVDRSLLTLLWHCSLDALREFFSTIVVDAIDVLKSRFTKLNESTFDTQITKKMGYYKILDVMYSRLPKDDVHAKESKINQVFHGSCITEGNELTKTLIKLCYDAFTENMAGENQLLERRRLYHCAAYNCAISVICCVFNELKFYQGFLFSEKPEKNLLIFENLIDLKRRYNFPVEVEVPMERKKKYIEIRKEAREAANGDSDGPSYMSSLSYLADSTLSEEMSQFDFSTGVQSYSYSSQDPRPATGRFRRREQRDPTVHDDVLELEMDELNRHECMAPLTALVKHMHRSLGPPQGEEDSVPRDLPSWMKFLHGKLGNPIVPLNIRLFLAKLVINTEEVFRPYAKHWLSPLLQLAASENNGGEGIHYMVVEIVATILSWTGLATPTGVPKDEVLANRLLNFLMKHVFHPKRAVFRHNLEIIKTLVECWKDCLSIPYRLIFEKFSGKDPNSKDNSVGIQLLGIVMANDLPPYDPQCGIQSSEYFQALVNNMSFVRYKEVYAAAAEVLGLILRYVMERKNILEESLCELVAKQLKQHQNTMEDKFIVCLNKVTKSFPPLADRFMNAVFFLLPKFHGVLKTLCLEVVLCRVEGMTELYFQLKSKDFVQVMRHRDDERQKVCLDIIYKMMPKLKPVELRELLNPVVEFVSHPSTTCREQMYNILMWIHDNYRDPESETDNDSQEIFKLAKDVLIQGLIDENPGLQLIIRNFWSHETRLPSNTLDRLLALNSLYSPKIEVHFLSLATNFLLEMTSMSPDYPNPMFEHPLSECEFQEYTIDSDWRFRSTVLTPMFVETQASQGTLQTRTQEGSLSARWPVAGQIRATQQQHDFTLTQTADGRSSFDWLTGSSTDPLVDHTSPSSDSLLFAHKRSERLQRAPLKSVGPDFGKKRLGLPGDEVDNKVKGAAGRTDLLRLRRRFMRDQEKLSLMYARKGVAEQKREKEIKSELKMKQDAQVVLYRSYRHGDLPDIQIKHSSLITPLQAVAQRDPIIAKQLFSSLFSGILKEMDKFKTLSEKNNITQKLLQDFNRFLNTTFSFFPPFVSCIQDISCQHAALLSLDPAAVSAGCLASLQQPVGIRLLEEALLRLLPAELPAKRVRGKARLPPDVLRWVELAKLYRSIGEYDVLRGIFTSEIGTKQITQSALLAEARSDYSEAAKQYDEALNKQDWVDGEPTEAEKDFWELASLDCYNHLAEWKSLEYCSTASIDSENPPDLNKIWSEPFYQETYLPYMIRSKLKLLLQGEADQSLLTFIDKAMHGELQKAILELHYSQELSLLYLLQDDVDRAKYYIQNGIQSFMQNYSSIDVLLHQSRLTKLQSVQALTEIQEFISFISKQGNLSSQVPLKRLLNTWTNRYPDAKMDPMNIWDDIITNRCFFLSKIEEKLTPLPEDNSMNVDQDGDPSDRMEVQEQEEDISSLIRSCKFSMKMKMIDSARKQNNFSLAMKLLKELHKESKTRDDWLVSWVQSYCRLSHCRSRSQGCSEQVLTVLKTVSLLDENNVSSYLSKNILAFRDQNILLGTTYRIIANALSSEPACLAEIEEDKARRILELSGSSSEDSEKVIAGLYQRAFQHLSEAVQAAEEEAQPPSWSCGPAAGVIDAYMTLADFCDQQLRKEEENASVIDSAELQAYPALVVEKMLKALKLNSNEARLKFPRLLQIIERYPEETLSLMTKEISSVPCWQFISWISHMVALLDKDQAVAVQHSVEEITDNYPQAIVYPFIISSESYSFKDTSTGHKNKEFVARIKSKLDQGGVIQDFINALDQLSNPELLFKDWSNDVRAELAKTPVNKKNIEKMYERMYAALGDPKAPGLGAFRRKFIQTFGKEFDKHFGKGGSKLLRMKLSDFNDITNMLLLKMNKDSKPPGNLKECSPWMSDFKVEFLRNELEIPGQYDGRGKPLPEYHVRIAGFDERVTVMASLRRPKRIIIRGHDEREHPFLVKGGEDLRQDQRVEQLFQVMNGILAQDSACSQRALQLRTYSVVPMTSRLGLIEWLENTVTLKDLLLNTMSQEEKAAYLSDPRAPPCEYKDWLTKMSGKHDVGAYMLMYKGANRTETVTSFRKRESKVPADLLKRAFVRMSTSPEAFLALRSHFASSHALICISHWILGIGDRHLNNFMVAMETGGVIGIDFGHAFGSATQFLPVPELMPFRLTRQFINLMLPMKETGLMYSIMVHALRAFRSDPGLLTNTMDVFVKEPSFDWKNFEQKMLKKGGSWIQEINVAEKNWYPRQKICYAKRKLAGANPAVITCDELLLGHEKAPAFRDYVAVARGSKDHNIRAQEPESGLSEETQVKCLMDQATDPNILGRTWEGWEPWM
UniProt P12956: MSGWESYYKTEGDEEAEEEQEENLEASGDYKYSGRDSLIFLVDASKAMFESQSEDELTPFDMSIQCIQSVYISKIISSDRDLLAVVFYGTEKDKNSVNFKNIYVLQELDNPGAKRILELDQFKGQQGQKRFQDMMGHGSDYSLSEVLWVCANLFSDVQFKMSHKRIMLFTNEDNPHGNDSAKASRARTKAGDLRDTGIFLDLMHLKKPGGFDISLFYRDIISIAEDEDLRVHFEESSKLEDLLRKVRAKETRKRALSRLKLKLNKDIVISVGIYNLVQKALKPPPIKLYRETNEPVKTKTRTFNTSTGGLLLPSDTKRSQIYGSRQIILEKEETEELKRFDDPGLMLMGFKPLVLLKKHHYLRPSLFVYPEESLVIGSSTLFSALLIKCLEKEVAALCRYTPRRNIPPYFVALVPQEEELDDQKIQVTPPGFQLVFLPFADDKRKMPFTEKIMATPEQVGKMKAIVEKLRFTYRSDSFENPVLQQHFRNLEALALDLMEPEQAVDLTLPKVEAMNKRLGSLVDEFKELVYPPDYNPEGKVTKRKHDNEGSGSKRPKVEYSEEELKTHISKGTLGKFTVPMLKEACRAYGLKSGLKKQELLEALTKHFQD

Results are given in words; binding and its absence hold for the method and conditions named. In cells and extracts the contact can be indirect. Some results given as binding are weak or reduced against the parent protein; the word gives no strength.

One experiment has as its target FLAG-HIF-2α (UniProt Q99814). Nature of the experiment: co-IP; MDA-MB-231 cells transfected with FLAG-HIF-2α vector, 1% O2 for 8 h; IP with FLAG Ab or IgG; endogenous partners by immunoblot. In general terms: A western blot detects proteins with antibodies after separation by electrophoresis.
The target of experiment [1] is Hypoxia-inducible factor-1α (HIF-1α) (human (endogenous in MDA-MB-231)) (UniProt Q16665). Nature of the experiment: condition: only cells exposed to 20% O2 (no hypoxia); co-IP; endogenous proteins, whole cell lysate of MDA-MB-231 cells exposed to 20% O2 for 8 h; IP with HIF-1α Ab; immunoblot.
For experiment [2] the target is unchanged. Nature of the experiment: co-IP; endogenous proteins, whole cell lysate of MDA-MB-231 cells (also NTC and HIF-1α/HIF-2α double-knockdown subclones) exposed to 1% O2 for 8 h; IP with HIF-1α or TRIM28 Ab or IgG; lysis buffer 150 mM NaCl, 50 mM HEPES pH 7.9, 1% IGEPAL; immunoblot.
In another experiment the target is FLAG-CDK9 (UniProt P50750). Nature of the experiment: co-IP; SUM159 cells co-transfected with FLAG-CDK9 and HA-tagged TRIM28-WT, -S824A or -S824D; IP with FLAG Ab or HA Ab; immunoblot.
The target in the next experiment is FLAG-HIF-1α (531–826) (UniProt Q16665). Nature of the experiment: co-IP; two tagged proteins co-expressed in MDA-MB-231 cells; IP with FLAG Ab (Fig. 1F, 1G; antibody not told for Supplementary Fig. 1D); immunoblot.
Experiment [3] concerns the target Tripartite motif containing protein 28 (TRIM28) (human (endogenous in MDA-MB-231 and SUM159)) (UniProt Q13263). As to the kind of experiment: co-IP; endogenous proteins, whole cell lysate of MDA-MB-231 cells (also NTC and HIF-1α/HIF-2α double-knockdown subclones) exposed to 1% O2 for 8 h; IP with HIF-1α or TRIM28 Ab or IgG; lysis buffer 150 mM NaCl, 50 mM HEPES pH 7.9, 1% IGEPAL; immunoblot.

The target of experiment [4] is CDK9 (endogenous) (human (endogenous in SUM159)) (UniProt P50750). Nature of the experiment: co-IP; endogenous proteins, SUM159 cells exposed to 20% or 1% O2 for 8 h; IP with KU70, KU86, CDK9, total TRIM28 or p-S824-TRIM28 Ab; immunoblot.

As for “DNA-dependent protein kinase catalytic subunit (DNA-PKcs) (from UniProt P78527 1-4128)”, the binding entry with FLAG-HIF-2α is “binds”; in experiment [1], “no binding”; in experiment [2], “binds”.

“HA-tagged TRIM28 (wild type) (from UniProt Q13263 1-835)”: the binding entry with FLAG-CDK9 and with FLAG-HIF-1α (531–826) was “binds” throughout.

“Hypoxia-inducible factor-1α (HIF-1α) (from UniProt Q16665 1-826)”: the binding entry in experiment [3] is on record as “binds”.

KU70 (from UniProt P12956 1-609): the results for the binding entry (in the experiment with FLAG-HIF-2α; in experiment [1]; in experiment [2]) were “binds”, “no binding” and “binds”, respectively.

On to KU86 (from UniProt P13010 1-732), for which the binding entry with FLAG-HIF-2α is given as “binds”; in experiment [1], “no binding”; in experiment [2], “binds”.

With “TRIM28 phosphorylated at S824 (endogenous) (from UniProt Q13263 1-835)”, the binding entry in experiment [4] is on record as “binds”.

Turning to “Tripartite motif containing protein 28 (TRIM28) (from UniProt Q13263 1-835)”, the binding result in the experiment with FLAG-HIF-2α is “binds”; in experiment [1] it was “no binding”; in experiment [2], “binds”.
